Measured values as given in US20240190987A1, “Engineered EpCam Binding Antibodies” (TigaTX, priority 2021, published 2024).
Entries after “also recorded” stand apart in the source; their conditions may differ.

What was measured:
Format in all cases: in vivo
[1] = Ab1060 pharmacokinetics in cynomolgus macaques; settings: single IV infusion 0.1 to 3.0 mg/kg
Method: FIG. 45 depicts the pharmacokinetic profile of a αCD3 T-LITE antibody in cynomolgus macaques. Cynomolgus macaques were injected with Ab1060 as a single intravenous infusion over 15 minutes at doses from 0.1 to 3.0 mg/kg (n=1 animals per dose level). Blood samples were collected at 1 hr, 3 hr, 6 hr, 1 d, 2 d, 3 d, 4 d, 5 d, 6 d, 7 d, 8 d, 9 d, and 10 d post-infusion with potassium EDTA as the anticoagulant, then processed to plasma and frozen. Antibody concentrations in plasma were measured using an ELISA specific for human IgG.
Two male and two female cynomolgus macaques (Mauritius origin) were distributed to 4 groups (n=1 per group). Animals were fasted overnight prior to dosing. Antibodies were dosed in alert animals at Time=0 hr via intravenous infusion using an infusion pump over 15 minutes. A postdose flush of saline was administered at a volume of approximately 1 mL. Blood (400 μL) was sampled serially at 13 time points post-infusion (1 hr, 3 hr, 6 hr, 1 d, 2 d, 3 d, 4 d, 5 d, 6 d, 7 d, 8 d, 9 d, and 10 d) with potassium EDTA as the anticoagulant, then processed to plasma and frozen. Plasma concentrations were quantified using an anti-human IgG sandwich ELISA that was developed and qualified in-house as described above. Pharmacokinetic parameters were calculated using the Phoenix WinNonLin software package (Certara, Princeton, NJ).

CD4+ T-cells = assay: Ab1060 cell surface binding to peripheral T-cells in cynomolgus macaques; settings: 0.1 to 3.0 mg/kg IV, flow cytometry
Method: Cynomolgus macaques were injected with Ab1060 as a single intravenous infusion over 15 minutes at doses from 0.1 to 3.0 mg/kg (n=1 animals per dose level). Whole blood samples were collected at 1, 24, 48, 72, 96, 168, 192 and 240 hours post-infusion with potassium EDTA as the anticoagulant. The amount of surface-bound Ab1060 was detected using a fluorescent PE-conjugated anti-human IgG antibody measured by flow cytometry. The median fluorescence intensity (MFI) was normalized to the maximum MFI observed across all samples in the experiment.
Two male and two female cynomolgus macaques (Mauritius origin) were distributed to 4 groups (n=1 per group). Animals were fasted overnight prior to dosing. Antibodies were dosed in alert animals at Time=0 hr via intravenous infusion using an infusion pump over 15 minutes. A postdose flush of saline was administered at a volume of approximately 1 mL. Blood (200 μL) was sampled serially at 8 time points post-infusion (1, 24, 48, 72, 96, 168, 192 and 240 hr) with potassium EDTA as the anticoagulant, then washed by centrifugation, and blocked with TruStain FcX (BioLegend, San Diego, CA) prior to antibody staining. […] Data was analyzed with the FlowJo software package (BD Bioscience). […] Median fluorescence intensity (MFI) of the PE channel in each sample was calculated and expressed as a normalized value relative to the sample with the highest MFI.

[2] = Tolerability (body weight) in transgenic B-hCD3E mice; settings: single IV dose: Ab1062 1 mg/kg, Ab1060 10 mg/kg; up to 5 days
Method: FIG. 47 depicts changes in body weight and plasma cytokine levels in B-hCD3E transgenic mice treated with a single dose of the αCD3 T-LITE antibody or a control TCE. The control TCE contains an anti-mouse EpCAM Fab instead of the LS2B domains, and would therefore be expected to redirect T-cells to target endogenous EpCAM-expressing tissues. Mice were injected with Ab1062 or Ab1060 as a single bolus intravenous injection at doses of 1 or 10 mg/kg, respectively (n=4 animals per dose level). Body weights were measured 3 and 5 days post-injection. Whole blood samples were collected at −96, 2, 6, 24, 72, and 120 hours relative to the time of injection, with potassium EDTA as the anticoagulant. The concentration of 18 cytokines in the plasma were measured using a bead-based multiplex assay.
Transgenic mice expressing the extracellular domain of the human CD3E gene were used to assess the tolerability of a CD3 T-LITE incorporating the SP34v68-5 clone and LS2B Fab R5M2 (Ab1060) (FIG. 47). A separate group of mice was injected with a surrogate conventional TCE incorporating the anti-mouse the SP34v68-5 clone and the anti-mouse EpCAM clone G8.8 (Ab1062) as a positive control for T-cell activation. […] The body weight loss associated with Ab1062 was correlated with a spike in cytokine release into the peripheral blood, as measured by a multiplexed cytokine assay. […]

B1: Ab1060: CD3 T-LITE incorporating the SP34v68-5 clone and LS2B Fab R5M2 (protein)
light: DIQMTQSPSSLSASVGDRVTITCRASQSVSSAVAWYQQKPGKAPKLLIYSASSLYSGVPSRFSGSRSGTDFTLTISSLQPEDFATYYCQQGGYSLITFGQGTKVEIKRTVAAPSVFIFPPSDSQLKSGTASVVCLLNNFYPREAKVQWKVDNALQSGNSQESVTEQDSKDSTYSLSSTLTLSKADYEKHKVYACEVTHQGLSSPVTKSFNRGEC
heavy 1: EVQLVESGGGLVQPGGSLRLSCAASGFTFNTYAMNWVRQAPGKGLEWVARIRSKYNNYATYYADSVKGRFTISRDDSKSILYLQMNSLRAEDTAVYYCVRHGNFGNSYVSWFAYWGQGTLVTVSSGGGGSGGGGSGGGGSDIQVTQSPSSLSASVGDRVTITCRSSTGAVTTSNYANWVQQKPGKAFKGLIGGTNKLAPGVPSRFSGSLSGDDATLTISSLQPEDFATYYCALWYSNLWVFGQGTKLEIKGGGGS[human IgG1 Fc with changes left out]
heavy 2: EVQLVESGGGLVQPGGSLRLSCAASGFDFSSYSIHWVRQAPGKGLEWVASISPYYGSTYYADSVKGRFTISADTSKNTAYLQMNSLRAEDTAVYYCARYYEWYKYDLYAGSLGFDYWGQGTLVTVSSASTKGPSVFPLAPSSKSTSGGTAALGCLVKDYFPEPVTVSWNSGALTSGVHTFPAVLQSSGLYSLSSVVTVPSSSLGTQTYICNVNHKPSNTKVDKKVEPKSCDKTHTGGGGSGGEVQLVESGGGLVQPGGSLRLSCAASGFDFSSYSIHWVRQAPGKGLEWVASISPYYGSTYYADSVKGRFTISADTSKNTAYLQMNSLRAEDTAVYYCARYYEWYKYDLYAGSLGFDYWGQGTLVTVSSASTKGPSVFPLAPSSKSTSGGTAALGCLVKDYFPEPVTVSWNSGALTSGVHTFPAVLQSSGLYSLSSVVTVPSSSLGTQTYICNVNHKPSNTKVDKKV[human IgG1 Fc with changes left out]
modifications: REGION 1..214: note = Ab1060 Hole LC; REGION 1..482: note = Ab1060 Knob HC; REGION 1..699: note = Ab1060 Hole HC
notes: CD3 T-LITE incorporating the SP34v68-5 clone and LS2B Fab R5M2
Question: Which plasma half-life [1] does the source give for B1 here?
Answer: 96 to 140 h

Question: And the “binding to T-cells in peripheral blood after dosing” value (CD4+ T-cells)?
Answer: confirmed; also recorded: dose-dependent binding

Question: And the “body weight change / tolerability” value [2]?
Answer: no evidence of body weight loss; also recorded: did not
